According to the supplement of paper PMC6089552:
The whole screen tested about 3,200 compounds, of which about 300 (9.4%) showed activity. The list shows a part of the results, in another mix than the full data.

Test system: A673/TR/shEF
Test: cell viability (LOESS-normalised, relative to median of negative controls) (log2 ratio); higher = more viable cells (less compound effect), active = hit call of the paper (over 3 MAD below the median)
Settings: treatment time: 72 h
Outline: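 A673/TR/shEF Ewing sarcoma cells (1,500 per well, 384-well plates) were grown with or without doxycycline to induce EWS-FLI1 shRNA knockdown, starting 24 h before compounds. Library compounds at two or more concentrations, with DMSO controls, were added for three days. Cell viability was read by CellTiter-Glo luminescence on an Envision reader, then LOESS-corrected per plate, divided by the median of negative controls and log2-transformed. Hits were wells at least three median absolute deviations from the median of all screened wells.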

[1] = 0.25 µM, library screen: screen1, EWS-FLI1 expression: high (no doxycycline)
[2] = 0.25 µM, library screen: screen1, EWS-FLI1 expression: low (doxycycline-induced shRNA knockdown)
[3] = 0.25 µM, library screen: screen2, EWS-FLI1 expression: high (no doxycycline)
[4] = 0.25 µM, library screen: screen2, EWS-FLI1 expression: low (doxycycline-induced shRNA knockdown)
[5] = 2.5 µM, library screen: screen1, EWS-FLI1 expression: high (no doxycycline)
[6] = 2.5 µM, library screen: screen1, EWS-FLI1 expression: low (doxycycline-induced shRNA knockdown)
[7] = 2.5 µM, library screen: screen2, EWS-FLI1 expression: high (no doxycycline)
[8] = 2.5 µM, library screen: screen2, EWS-FLI1 expression: low (doxycycline-induced shRNA knockdown)

Measured: cell viability (log2)

CN(C)CCOC(c1ccccc1)c1ccccc1
inactive: 0.103 µM, library screen: screen3, EWS-FLI1 expression: high (no doxycycline) 0.0458 | 0.103 µM, library screen: screen3, EWS-FLI1 expression: low (doxycycline-induced shRNA knockdown) 0.0854 | [1] 0.106 | [2] 0.0755 | [3] 0.0714 | [4] -0.00862 | 0.308 µM, library screen: screen3, EWS-FLI1 expression: high (no doxycycline) 0.116 | 0.308 µM, library screen: screen3, EWS-FLI1 expression: low (doxycycline-induced shRNA knockdown) 0.0863 | 0.926 µM, library screen: screen3, EWS-FLI1 expression: high (no doxycycline) 0.0978 | 0.926 µM, library screen: screen3, EWS-FLI1 expression: low (doxycycline-induced shRNA knockdown) 0.0963 | [5] 0.172 | [6] 0.17 | [7] 0.0587 | [8] 0.000637 | 2.8 µM, library screen: screen3, EWS-FLI1 expression: high (no doxycycline) 0.0751 | 2.8 µM, library screen: screen3, EWS-FLI1 expression: low (doxycycline-induced shRNA knockdown) 0.089 | 8.3 µM, library screen: screen3, EWS-FLI1 expression: high (no doxycycline) 0.105 | 8.3 µM, library screen: screen3, EWS-FLI1 expression: low (doxycycline-induced shRNA knockdown) 0.11 | 25 µM, library screen: screen3, EWS-FLI1 expression: high (no doxycycline) 0.199 | 25 µM, library screen: screen3, EWS-FLI1 expression: low (doxycycline-induced shRNA knockdown) 0.14

COc1cc(OC)cc(OC)c1
inactive: [1] 0.193 | [2] 0.141 | [5] 0.207 | [6] 0.0756

COc1ccc(C2C3=C(CC(C)(C)CC3=O)OC3=C2C(=O)CC(C)(C)C3)cc1[N+](=O)[O-]
inactive: [1] 0.06 | [2] 0.0112 | [5] 0.134 | [6] -0.00188

Cc1cc(=O)oc2cc(O)c(O)cc12
inactive: [1] -0.0238 | [2] 0.0536 | [5] 0.00784 | [6] 0.0751

N[C@@H](Cc1cc(I)c(Oc2cc(I)c(O)c(I)c2)c(I)c1)C(=O)O
inactive: [1] 0.115 | [2] 0.0893 | [5] 0.154 | [6] 0.312

CSc1nc(N)c2ncn(C3OC(COP(=O)(O)OP(=O)(O)O)C(O)C3O)c2n1 (stereo not given)
inactive: [3] 0.0889 | [4] 0.0973 | [7] 0.157 | [8] 0.0918

CN1C[C@H](O)[C@@H](O)[C@H](O)[C@H]1CO
inactive: [3] -0.0352 | [4] 0.0677 | [7] 0.0611 | [8] 0.0287

NC(N)=NCCSSCCN=C(N)N
inactive: [3] 0.208 | [4] 0.0937 | [7] 0.0577 | [8] 0.063

O=C1C[C@@H](c2ccc(O)cc2)Oc2cc(O)ccc21
inactive: [1] 0.0381 | [2] 0.0982 | [5] 0.158 | [6] 0.0988

COc1cc(O)c2c(=O)cc(-c3ccc(OC)c(O)c3)oc2c1
inactive: [1] 0.0474 | [2] 0.00819 | [5] 0.132 | [6] 0.0369

Clc1ccc(CSC(Cn2ccnc2)c2ccc(Cl)cc2Cl)cc1 (stereo not given)
inactive: [1] 0.0547 | [2] -0.0713 | [5] 0.0724 | [6] -0.143

Nc1ncnc2c1ncn2[C@@H]1O[C@H](CO)[C@@H](O)[C@H]1O
active: [3] -0.195

COc1cc(CN2CCN(Cc3ccc([N+](=O)[O-])cc3)CC2)c([N+](=O)[O-])cc1OC
inactive: [1] 0.132 | [2] 0.09 | [5] 0.0515 | [6] 0.104
